According to article PMC9911399, “Two distinct binding modes provide the RNA-binding protein RbFox with extraordinary sequence specificity”:
Numbering of substitutions follows the chain as printed; changes in the protein carry UniProt numbers. The list shows a part of the results.

T1: RBFOX1 RRM (Homo sapiens, UniProt Q9NWB1 109-208)
T1 sequence: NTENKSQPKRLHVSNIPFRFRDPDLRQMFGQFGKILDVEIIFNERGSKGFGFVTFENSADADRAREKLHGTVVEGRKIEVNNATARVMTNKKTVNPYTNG

B1: CGCUCAU (DNA:RNA)
RNA: GGGAGACCGGAAUUCAGAUUGUCCCGCUCAUUUAAAUCCCGUCGUAGCCACCA
DNA 1: CAATCTGAATTCCGGTCTCCC
DNA 2: TGGTGGCTACGACGGGATT
B2: UAUUGUA (DNA:RNA)
RNA: B1 RNA with C25U, G26A, C27U, C29G, A30U, U31A
DNA 1: CAATCTGAATTCCGGTCTCCC
DNA 2: TGGTGGCTACGACGGGATT
B3: AUGCACG (DNA:RNA)
RNA: GGGAGACCGGAAUUCAGAUUGUCCAUGCACGUUAAAUCCCGUCGUAGCCACCA
DNA 1: CAATCTGAATTCCGGTCTCCC
DNA 2: TGGTGGCTACGACGGGATT
B4: UUAAUAC (DNA:RNA)
RNA: B3 RNA with A25U, G27A, C28A, A29U, C30A, G31C
DNA 1: CAATCTGAATTCCGGTCTCCC
DNA 2: TGGTGGCTACGACGGGATT
B5: CUUUGAG (DNA:RNA)
RNA: B1 RNA with G26U, C27U, C29G, U31G
DNA 1: CAATCTGAATTCCGGTCTCCC
DNA 2: TGGTGGCTACGACGGGATT
B6: UGUUUGC (DNA:RNA)
RNA: B1 RNA with C25U, C27U, C29U, A30G, U31C
DNA 1: CAATCTGAATTCCGGTCTCCC
DNA 2: TGGTGGCTACGACGGGATT
B7: CGACUAG (DNA:RNA)
RNA: B1 RNA with C27A, U28C, C29U, U31G
DNA 1: CAATCTGAATTCCGGTCTCCC
DNA 2: TGGTGGCTACGACGGGATT
B8: UAGCCGG (DNA:RNA)
RNA: B3 RNA with A25U, U26A, A29C, C30G
DNA 1: CAATCTGAATTCCGGTCTCCC
DNA 2: TGGTGGCTACGACGGGATT
B9: CGAGUUU (DNA:RNA)
RNA: B1 RNA with C27A, U28G, C29U, A30U
DNA 1: CAATCTGAATTCCGGTCTCCC
DNA 2: TGGTGGCTACGACGGGATT
B10: AGGCAGC (DNA:RNA)
RNA: B3 RNA with U26G, C30G, G31C
DNA 1: CAATCTGAATTCCGGTCTCCC
DNA 2: TGGTGGCTACGACGGGATT
B11: AUACAGA (DNA:RNA)
RNA: B3 RNA with G27A, C30G, G31A
DNA 1: CAATCTGAATTCCGGTCTCCC
DNA 2: TGGTGGCTACGACGGGATT
B12: AUCGAAU (DNA:RNA)
RNA: B3 RNA with G27C, C28G, C30A, G31U
DNA 1: CAATCTGAATTCCGGTCTCCC
DNA 2: TGGTGGCTACGACGGGATT
B13: CGGUCUA (DNA:RNA)
RNA: B1 RNA with C27G, A30U, U31A
DNA 1: CAATCTGAATTCCGGTCTCCC
DNA 2: TGGTGGCTACGACGGGATT
B14: UAGGUAU (DNA:RNA)
RNA: B1 RNA with C25U, G26A, C27G, U28G, C29U
DNA 1: CAATCTGAATTCCGGTCTCCC
DNA 2: TGGTGGCTACGACGGGATT
B15: CCUAGCA (DNA:RNA)
RNA: B3 RNA with A25C, U26C, G27U, C28A, A29G, G31A
DNA 1: CAATCTGAATTCCGGTCTCCC
DNA 2: TGGTGGCTACGACGGGATT
B16: CGGAUAU (DNA:RNA)
RNA: B1 RNA with C27G, U28A, C29U
DNA 1: CAATCTGAATTCCGGTCTCCC
DNA 2: TGGTGGCTACGACGGGATT
B17: GACCUAA (DNA:RNA)
RNA: B1 RNA with C25G, G26A, U28C, C29U, U31A
DNA 1: CAATCTGAATTCCGGTCTCCC
DNA 2: TGGTGGCTACGACGGGATT
B18: UUACUGC (DNA:RNA)
RNA: B3 RNA with A25U, G27A, A29U, C30G, G31C
DNA 1: CAATCTGAATTCCGGTCTCCC
DNA 2: TGGTGGCTACGACGGGATT
B19: UAAGGUA (DNA:RNA)
RNA: GGGAGACCGGAAUUCAGAUUGUCCUAAGGUAUUAAAUCCCGUCGUAGCCACCA
DNA 1: CAATCTGAATTCCGGTCTCCC
DNA 2: TGGTGGCTACGACGGGATT
B20: GGCAAGU (DNA:RNA)
RNA: B1 RNA with C25G, U28A, C29A, A30G
DNA 1: CAATCTGAATTCCGGTCTCCC
DNA 2: TGGTGGCTACGACGGGATT

target: T1, RBFOX1 RRM; assay: EMSA; HiTS-Eq, 1 nM pool, 10 min; buffer printed only for the single-RNA assays: 10 mM Tris pH 7.5, 150 mM NaCl, 3.4 mM EDTA, 0.001% NP-40, 30 C; settings: tags: His6 N-terminal (pET28a); label: 5' 32P
Outline: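 Relative association constants, normalised to the cognate motif, were derived by comparing read counts of each RNA species with those of the control reaction. The RNA sequenced was the free fraction, separated by 8% native PAGE after a 10 min equilibration in 50 µL of 1 nM 5′-radiolabelled RNA (7 randomized nucleotides) with increasing concentrations of purified wild-type or mutant RbFox RRM.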

Binder | binding signal
B1 | 0.00669 KA relative to UGCAUGU
B2 | 0.014 KA relative to UGCAUGU
B3 | 0.361 KA relative to UGCAUGU
B4 | 0.00148 KA relative to UGCAUGU
B5 | 0.0184 KA relative to UGCAUGU
B6 | 0.0351 KA relative to UGCAUGU
B7 | 0.0115 KA relative to UGCAUGU
B8 | 0.00471 KA relative to UGCAUGU
B9 | 0.0135 KA relative to UGCAUGU
B10 | 0.0108 KA relative to UGCAUGU
B11 | 0.00233 KA relative to UGCAUGU
B12 | 0.00773 KA relative to UGCAUGU
B13 | 0.00571 KA relative to UGCAUGU
B14 | 0.0126 KA relative to UGCAUGU
B15 | 0.00724 KA relative to UGCAUGU
B16 | 0.0147 KA relative to UGCAUGU
B17 | 0.00233 KA relative to UGCAUGU
B18 | 0.0154 KA relative to UGCAUGU
B19 | 0.0116 KA relative to UGCAUGU
B20 | 0.0133 KA relative to UGCAUGU
